In the RNAGym collection of RNA variant scans (doi:10.1093/nar/gkz1192):
The source gives no read counts; variants with many changes may rest on few reads.

B1: CPEB3 Ribozyme (parent)
chain: UAACAGGGGGCCACAGCAGAAGCGUUCACGUCGCAGCCCCUGUCAGAUUCUGGUGAAUCUGCGAAUUCUGCUGUAUAUCUC

Variants of: B1
Assay: self-cleavage, relative activity (ratio to wild type); higher = more cleavage; in vitro, sequencing
Summary of the method: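 Barcoded CPEB3 ribozyme mutants, produced by rounds of error-prone PCR, self-cleaved while being transcribed with T7 RNA polymerase for 5 hours at 37°C and during a subsequent 15 min DNase I step before EDTA was added. Sequencing of template-switched cDNA on Illumina gave cleaved and total reads, and DNA sequencing assigned barcodes to variants. Each variant's relative activity is its cleaved/total read fraction divided by the unmutated ribozyme's fraction, averaged across three batches. A variant needed a minimum of 5 reads.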

Variant	self-cleavage
U25C U31C U41G C68U U78C	0.23
U25C C27A U66C	0.19
U25C U48C A57G U58C	0.08
U25C U43C A56G U58C	0.47
U25C U41C U67C	0.06
U25C U26C U31C	0.23
U25C U41G U69C	0.12
U25C U66C U67A	0.22
U25C U54C U60A C62G	0.11
U25C U51C U60C U80A	0.12
U25C U26A U58C U74C U80A	0.06
U25C U26C U43C G46C	0.3
U25C C38U G46U A57U U60A U66C	0.03
U25C U41C U69C U80A	0.06
U25C A57G U58C U60A A65G U74A A75G	0.05
U25C U31A A45G U60A U69A U74A	0.05
U25C U43G A56G C71A	0.12
U25C U51A U66A	0.11
U25C U51A U66C	0.35
U25C U26G U31A U41A U78C	0.07
U25C U31C C44A A47G	0.38
U25C U41C G63A	0.15
U25C C27A A64G	0.42
U25C A45U U49A U69A	0.09

Variant	self-cleavage
U25C U48C U58A	0.17
U25C U43C U49A	0.26
U25C G33U U41C A56G	0.36
U25C U26C U69A	0.1
U25C U31A U43C U67A A75G	0.13
U25C C29U U78A	0.21
U25C U26C G33U	0.17
U25C G33C U43G U54A	0.07
U25C G30U U41C A75U	0.34
U25C C34A C39A C50G U54A U60A	0.17
U25C C27A G30U A77G	0.09
U25C U43A A77U C81U	0.25
U25C U31C U60C	0.36
U25C U41C U54C U72A A75G	0.07
U25C U41A U58G U72C	0.12
U25C C27A U31C C44A	0.08
U25C U48C U51C U60C	0.44
U25C U67C C68G	0.07
U25C U48C U78C	0.24
U25C C39A A64U U66C U67A	0.07
U25C G33C U49A U51A U67C A77U	0.11
U25C U41A U60A A64G	0.09
U25C U60G U80A	0.09
U25C U26C U31A U43G	0.34

Variant	self-cleavage
U25C U31C A56C A57C	0.04
U25C A47U U60A	0.15
U25C U48C U67C A77U	0.07
U25C U26C C62A U69C U72A U80C	0.05
U25C U26A U31C U80A	0.42
U25C U43C U60C U80A	0.32
U25C U43C G46C U72A	0.36
U25C U51A A64G	0.14
U25C U26C G33U U66C	0.07
U25C G30A A45U A75G	0.08
U25C U48A U69A	0.12
U25C C37U G46U	0.21
U25C U43G U48A U69A	0.06
U25C U60C A75G	0.11
U25C A57G U67A	0.17
U25C U66C U69C	0.22
U25C U26C U58A U66C	0.33
U25C U41A U51C	0.34
U25C U41A U51A	0.36
U25C U43A C62U	0.33
U25C U26G A56U U69C A77U	0.04
U25C G55U A64G U72C	0.57
U25C U43C A47G U51A U66C U72C	0.14
U25C U49A U76C	0.16

Variant	self-cleavage
U25C C40U U67A	0.2
U25C U31A U60C	0.17
U25C U41A U51A U60C A65G U66C U72G	0.1
U25C C32U C34U U43C	0.19
U25C U26C U72C	0.24
U25C U41A G61C	0.1
U25C U26C A64U U67C	0.28
U25C U26A A35G U80A	0.5
U25C A45U U58C U72C U74C	0.15
U25C C37A A45G	0.13
U25C U43C U80C	0.62
U25C U31A U41A	0.38
U25C C32G G52A U60A U67A C81U	0.03
U25C U26C A64G U66A	0.12
U25C U31A U76C U80C	0.1
U25C U41C G55A U80A	0.1
U25C U48C C59U	0
U25C U54C U74C	0.11
U25C G70A U78C	0.22
U25C U31A U43C U54C	0.3
U25C G42A A45G U54C	0.19
U25C U43A U67C U74C	0.15
U25C U51A U54C A57U	0.06
U25C U26C A35G U67C C81U	0.11

Variant	self-cleavage
U25C U49C G63A U69C	0.31
U25C U43A U74A	0.13
U25C A47G U67C	0.22
U25C U49C A56G C62A U67C U78C	0.09
U25C U41C U58C U69A U72A	0.26
U25C C27U C50U U54C U67A	0.05
U25C U51C U60A	0.15
U25C A57G U66C U67A C79A U80C	0.12
U25C G36U A56U U69A U74C	0.06
U25C U51C A57G	0.23
U25C U49C A57G	0.29
U25C U58C U72A	0.12
U25C C27A A64G U80C	0.52
U25C U41C U54C	0.28
U25C C29A C38A U67C	0.06
U25C U51C U69A	0.36
U25C U66A U72A	0.09
U25C A57C A77G	0.1
U25C C37A G42U A64G U76A	0.04
U25C U43G G73C	0.3
U25C C62U U78C	0.1
U25C U48C U49C A64G	0.4
U25C U43C U69C	0.05
U25C U43C U69A	0.3

Variant	self-cleavage
U25C G30A U49A A56G U67C U72C U80C	0.14
U25C U43C A56G U58C U66C U78C	0.13
U25C U31A U41C U51A U66C	0.14
U25C U31C U41A U48C A56U U80C	0.06
U25C U48C A64G U78C	0.15
U25C C39A A45G U74C	0.2
U25C U31C U69C U72C	0.01
U25C C32G U41C U54C	0.22
U25C A65G U67A	0.21
U25C A65G U67C	0.17
U25C U41A U54C U60A	0.12
U25C U49C U51A U76A	0.07
U25C C38G C39U C68A U78A	0.04
U25C U41A A57G	0.2
U25C U58C U69C	0.15
U25C G46A A47G C71G	0.08
U25C G42U A64G U69C U74A U80C	0.1
U25C U49C U74A	0.24
U25C C62A U78C	0.14
U25C U26A U41A U58C U74C	0.19
U25C U51G A56U	0.21
U25C A47G U67C U69C U72C	0.13
U25C U41C U60C	0.38
U25C G33A U48C A75U U78C	0.12

Variant	self-cleavage
U25C A45U G63U	0.24
U25C U60A A64G A65G G73A	0.2
U25C U67A U72C	0.27
U25C U54C U60C U74C	0.14
U25C U26C U43C U80C	0.5
U25C C40U U51A C71U	0.08
U25C C37A C40U U49C	0.18
U25C U54A C71A	0.12
U25C U26A A64U U69C	0.14
U25C U51A U66G G73U	0.07
U25C U31C G33A A57G U72C U76C	0.04
U25C U31A U51G	0.31
U25C U26A A47U U48C U66A U69C	0.25
U25C A65G U69A	0.08
U25C G55A A56G	0.16
U25C U48C A56G U69C A75U	0.1
U25C U51C U78A	0.18
U25C U54C U67C U76C	0.32
U25C U31C A57G U80A	0.12
U25C U31G U60C	0.14
U25C G30A A35U U66C U72C	0.13
U25C U43C U54C C59U G61A	0.06
U25C U26C A56G U60A U74A	0.15
